These results are taken from article PMC4337420.

Amino acid sequences for entries named in this document (tags omitted). A change or cut given only in a name is not applied to a line headed by its entry. Chains listed by the source or under a name are the forms on record and can include a tag or linker.
UniProt Q95V55: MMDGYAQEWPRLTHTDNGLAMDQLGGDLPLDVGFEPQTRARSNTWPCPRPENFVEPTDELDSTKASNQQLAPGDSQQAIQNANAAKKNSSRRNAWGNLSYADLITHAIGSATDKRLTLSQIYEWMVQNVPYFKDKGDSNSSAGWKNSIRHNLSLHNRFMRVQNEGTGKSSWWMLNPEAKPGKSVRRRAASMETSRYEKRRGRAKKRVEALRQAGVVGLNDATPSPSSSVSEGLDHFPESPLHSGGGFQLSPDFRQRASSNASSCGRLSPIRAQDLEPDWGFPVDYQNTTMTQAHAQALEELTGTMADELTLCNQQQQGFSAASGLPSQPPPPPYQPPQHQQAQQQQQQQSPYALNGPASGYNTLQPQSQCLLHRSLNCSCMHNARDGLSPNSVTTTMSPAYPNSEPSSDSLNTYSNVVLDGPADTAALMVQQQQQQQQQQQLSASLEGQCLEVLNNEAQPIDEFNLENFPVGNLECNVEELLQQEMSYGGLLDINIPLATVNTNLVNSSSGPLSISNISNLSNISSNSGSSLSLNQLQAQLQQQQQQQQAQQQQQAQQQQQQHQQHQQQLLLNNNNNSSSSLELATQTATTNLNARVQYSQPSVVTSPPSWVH
GST-tagged full length FoxO with N175 mutated to alanine (Q95V55-1, form named): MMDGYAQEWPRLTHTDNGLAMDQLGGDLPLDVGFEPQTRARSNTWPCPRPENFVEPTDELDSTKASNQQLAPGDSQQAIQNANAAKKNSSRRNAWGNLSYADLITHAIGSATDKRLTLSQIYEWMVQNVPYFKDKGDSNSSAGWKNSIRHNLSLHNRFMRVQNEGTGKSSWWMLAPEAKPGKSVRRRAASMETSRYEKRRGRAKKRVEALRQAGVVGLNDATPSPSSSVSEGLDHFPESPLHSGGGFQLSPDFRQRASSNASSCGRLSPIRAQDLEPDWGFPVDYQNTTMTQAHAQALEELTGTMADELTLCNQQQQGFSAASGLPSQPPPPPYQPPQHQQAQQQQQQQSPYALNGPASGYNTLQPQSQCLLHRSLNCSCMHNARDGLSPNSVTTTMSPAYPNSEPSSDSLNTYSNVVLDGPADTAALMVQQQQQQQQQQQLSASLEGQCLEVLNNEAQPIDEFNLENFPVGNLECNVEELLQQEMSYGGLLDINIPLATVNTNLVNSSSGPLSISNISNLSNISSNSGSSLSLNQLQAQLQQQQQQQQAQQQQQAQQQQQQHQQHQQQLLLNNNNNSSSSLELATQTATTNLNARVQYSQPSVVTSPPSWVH
GST-tagged full length FoxO with K204 mutated to alanine (Q95V55-1, form named): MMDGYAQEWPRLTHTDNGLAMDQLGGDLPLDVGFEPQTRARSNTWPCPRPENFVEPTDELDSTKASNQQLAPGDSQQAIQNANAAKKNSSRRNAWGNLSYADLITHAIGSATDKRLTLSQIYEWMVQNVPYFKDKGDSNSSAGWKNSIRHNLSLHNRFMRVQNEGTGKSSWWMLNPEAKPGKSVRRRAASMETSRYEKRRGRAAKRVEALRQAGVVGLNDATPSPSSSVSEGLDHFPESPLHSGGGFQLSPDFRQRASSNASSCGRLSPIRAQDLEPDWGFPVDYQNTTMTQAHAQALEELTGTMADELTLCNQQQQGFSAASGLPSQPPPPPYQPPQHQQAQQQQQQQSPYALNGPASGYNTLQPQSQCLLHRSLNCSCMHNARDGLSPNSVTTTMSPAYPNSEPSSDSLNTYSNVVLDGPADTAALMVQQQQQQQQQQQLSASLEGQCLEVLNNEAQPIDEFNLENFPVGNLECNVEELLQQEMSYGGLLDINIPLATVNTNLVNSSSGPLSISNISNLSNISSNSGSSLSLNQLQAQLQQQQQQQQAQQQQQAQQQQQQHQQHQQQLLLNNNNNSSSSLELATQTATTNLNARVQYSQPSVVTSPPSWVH
GST-tagged full length FoxO with R202 mutated to alanine (Q95V55-1, form named): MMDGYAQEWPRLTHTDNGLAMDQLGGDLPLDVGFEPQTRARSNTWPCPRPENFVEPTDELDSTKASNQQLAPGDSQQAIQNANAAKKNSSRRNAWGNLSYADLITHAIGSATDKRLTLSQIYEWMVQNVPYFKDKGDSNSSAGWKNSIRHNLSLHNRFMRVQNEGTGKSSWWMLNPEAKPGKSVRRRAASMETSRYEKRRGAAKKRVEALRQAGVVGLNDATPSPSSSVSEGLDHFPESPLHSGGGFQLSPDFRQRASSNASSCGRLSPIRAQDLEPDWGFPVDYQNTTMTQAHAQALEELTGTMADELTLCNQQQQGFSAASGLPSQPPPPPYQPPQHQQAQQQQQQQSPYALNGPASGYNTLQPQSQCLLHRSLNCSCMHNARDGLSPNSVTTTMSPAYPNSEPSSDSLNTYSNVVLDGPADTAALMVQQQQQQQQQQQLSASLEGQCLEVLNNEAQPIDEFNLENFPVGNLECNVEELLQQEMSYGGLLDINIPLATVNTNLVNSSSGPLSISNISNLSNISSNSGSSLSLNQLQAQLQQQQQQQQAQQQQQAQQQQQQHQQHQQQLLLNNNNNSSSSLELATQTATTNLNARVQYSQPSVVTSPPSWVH
GST-tagged full length FoxO with W172 mutated to alanine (Q95V55-1, form named): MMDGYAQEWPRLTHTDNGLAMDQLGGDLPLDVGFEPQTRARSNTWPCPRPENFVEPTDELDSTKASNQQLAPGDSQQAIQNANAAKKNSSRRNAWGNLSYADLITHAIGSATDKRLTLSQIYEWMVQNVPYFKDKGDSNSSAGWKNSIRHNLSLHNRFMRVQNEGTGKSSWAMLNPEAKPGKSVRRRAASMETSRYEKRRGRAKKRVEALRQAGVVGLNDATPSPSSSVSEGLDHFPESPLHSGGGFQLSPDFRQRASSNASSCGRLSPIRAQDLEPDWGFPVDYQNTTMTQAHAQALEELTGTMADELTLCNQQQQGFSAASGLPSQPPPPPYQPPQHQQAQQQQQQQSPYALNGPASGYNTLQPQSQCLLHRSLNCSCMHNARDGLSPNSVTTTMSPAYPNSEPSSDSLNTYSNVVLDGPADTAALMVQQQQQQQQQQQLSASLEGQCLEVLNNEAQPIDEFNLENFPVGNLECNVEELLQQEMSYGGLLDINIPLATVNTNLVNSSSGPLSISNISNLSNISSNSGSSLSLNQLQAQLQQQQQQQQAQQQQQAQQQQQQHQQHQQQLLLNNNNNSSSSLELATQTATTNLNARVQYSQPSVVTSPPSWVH

Assay [1] has as its target T1, Ecdysone Receptor (EcR), endogenous in larvae (Drosophila melanogaster (endogenous in w[1118] larvae)) (UniProt P34021).
T1 sequence: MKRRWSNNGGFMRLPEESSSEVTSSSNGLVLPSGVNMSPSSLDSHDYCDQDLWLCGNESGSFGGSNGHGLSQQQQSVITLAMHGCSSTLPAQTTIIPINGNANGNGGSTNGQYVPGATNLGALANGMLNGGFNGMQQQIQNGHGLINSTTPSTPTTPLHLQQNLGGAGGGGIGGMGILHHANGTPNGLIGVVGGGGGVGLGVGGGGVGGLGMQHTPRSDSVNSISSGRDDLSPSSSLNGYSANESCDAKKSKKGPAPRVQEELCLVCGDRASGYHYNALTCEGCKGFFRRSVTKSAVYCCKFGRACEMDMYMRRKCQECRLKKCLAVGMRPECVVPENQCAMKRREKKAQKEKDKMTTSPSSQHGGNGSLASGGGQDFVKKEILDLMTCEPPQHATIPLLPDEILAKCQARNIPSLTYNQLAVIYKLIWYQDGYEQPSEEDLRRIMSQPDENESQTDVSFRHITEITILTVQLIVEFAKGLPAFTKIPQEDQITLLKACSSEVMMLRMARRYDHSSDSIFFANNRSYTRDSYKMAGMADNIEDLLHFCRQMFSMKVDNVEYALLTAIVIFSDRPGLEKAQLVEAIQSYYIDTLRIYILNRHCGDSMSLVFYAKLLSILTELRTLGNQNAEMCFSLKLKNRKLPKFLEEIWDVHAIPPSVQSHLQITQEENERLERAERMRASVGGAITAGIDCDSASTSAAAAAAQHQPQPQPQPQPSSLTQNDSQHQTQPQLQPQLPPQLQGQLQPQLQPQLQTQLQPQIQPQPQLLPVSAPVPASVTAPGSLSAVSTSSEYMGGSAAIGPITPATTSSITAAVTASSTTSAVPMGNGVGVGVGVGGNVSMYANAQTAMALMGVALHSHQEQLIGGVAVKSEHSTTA
Description: co-IP; 500 µg protein extract of anterior halves (without fat body and salivary glands) of w[1118] larvae, pre-critical weight (0–5 hr AL3E) or protein-starved 24 hr on 20% sucrose; precipitation with anti-Usp (AB11) or anti-EcR (DDA2.7); blots for FoxO, Usp, EcR.

The target in assay [2] is T2, Ultraspiracle (Usp), endogenous in larvae (Drosophila melanogaster (endogenous in w[1118] larvae)) (UniProt P20153).
T2 sequence: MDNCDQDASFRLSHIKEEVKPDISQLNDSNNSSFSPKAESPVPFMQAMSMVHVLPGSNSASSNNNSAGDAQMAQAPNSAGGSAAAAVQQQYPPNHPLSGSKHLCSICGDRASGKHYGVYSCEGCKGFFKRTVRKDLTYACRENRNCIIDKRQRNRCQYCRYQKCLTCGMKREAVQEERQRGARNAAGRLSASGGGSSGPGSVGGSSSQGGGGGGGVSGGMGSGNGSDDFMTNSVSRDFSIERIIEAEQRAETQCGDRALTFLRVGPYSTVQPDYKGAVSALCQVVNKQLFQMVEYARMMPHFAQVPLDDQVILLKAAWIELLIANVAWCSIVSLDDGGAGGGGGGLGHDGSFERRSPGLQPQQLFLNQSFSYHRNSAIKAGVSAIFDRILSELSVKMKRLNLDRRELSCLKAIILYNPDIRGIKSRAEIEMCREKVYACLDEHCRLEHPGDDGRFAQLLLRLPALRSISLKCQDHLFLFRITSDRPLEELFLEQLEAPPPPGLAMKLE
The assay is described as above.

For assay [3], the target named is T2, Ultraspiracle (Usp), endogenous in larvae (Drosophila melanogaster (endogenous in w[1118] larvae)). Put plainly: condition: only well-fed post-critical weight larvae; co-IP; as a3, but extract of well-fed post-critical weight larvae (fed on standard fly medium for additional 24 hr); precipitation with anti-Usp (AB11).
In assay [4] the target is GST-tagged Forkhead Box class O (FoxO), full length (Drosophila melanogaster) (UniProt Q95V55). Put plainly: pull-down; GST-pulldown in vitro: GST-tagged FoxO (full length, fragments or point mutants) purified on Glutathione Sepharose 4B as bait; Flag-tagged Usp or EcR detected with anti-Flag M2; source of the Flag-tagged proteins not told.
Assay [5] has the same target. Description: pull-down; GST-pulldown as a1, in the presence of 20E (20-hydroxyecdysone).
The target of assay [6] is GST-tagged full length FoxO with N175 mutated to alanine (Drosophila melanogaster) (UniProt Q95V55). Description: pull-down; GST-pulldown in vitro: GST-tagged FoxO (full length, fragments or point mutants) purified on Glutathione Sepharose 4B as bait; Flag-tagged Usp or EcR detected with anti-Flag M2; source of the Flag-tagged proteins not told.
Assay [7] deals with GST-tagged full length FoxO with K204 mutated to alanine (Drosophila melanogaster) (UniProt Q95V55). The assay is described as above.
Assay [8] deals with GST-tagged full length FoxO with R202 mutated to alanine (Drosophila melanogaster) (UniProt Q95V55). The description is as above.
Assay [9] deals with GST-tagged full length FoxO with W172 mutated to alanine (Drosophila melanogaster) (UniProt Q95V55). The assay is described as above.

These are yes or no findings as the source states them, for the method shown. In cells and extracts the contact can be indirect. Some entries that bind do so weakly or less than the wild type. For some assays here: Tags and fused reporters may be left off the sequences shown.

Take “Forkhead Box class O (FoxO), endogenous in larvae (from UniProt Q95V55-1 1-613)”: the results for the binding result in [1], in [2] and in [3] were “no binding”, “binds” and “no binding”, respectively.

B1: Flag-tagged Ecdysone Receptor isoform A (EcR-A), full length (protein, UniProt P34021-2 1-849)
chain: MLTTSGQQQSKQKLSTLPSHILLQQQLAASAGPSSSVSLSPSSSAALTLHVASANGGARETTSAAAVKDKLRPTPTAIKIEPMPDVISVGTVAGGSSVATVVAPAATTTSNKPNSTAAPSTSAAAANGHLVLVPNKRPRLDVTEDWMSTPSPGSVPSSAPPLSPSPGSQNHSYNMSNGYASPMSAGSYDPYSPTGKTGRDDLSPSSSLNGYSANESCDAKKSKKGPAPRVQEELCLVCGDRASGYHYNALTCEGCKGFFRRSVTKSAVYCCKFGRACEMDMYMRRKCQECRLKKCLAVGMRPECVVPENQCAMKRREKKAQKEKDKMTTSPSSQHGGNGSLASGGGQDFVKKEILDLMTCEPPQHATIPLLPDEILAKCQARNIPSLTYNQLAVIYKLIWYQDGYEQPSEEDLRRIMSQPDENESQTDVSFRHITEITILTVQLIVEFAKGLPAFTKIPQEDQITLLKACSSEVMMLRMARRYDHSSDSIFFANNRSYTRDSYKMAGMADNIEDLLHFCRQMFSMKVDNVEYALLTAIVIFSDRPGLEKAQLVEAIQSYYIDTLRIYILNRHCGDSMSLVFYAKLLSILTELRTLGNQNAEMCFSLKLKNRKLPKFLEEIWDVHAIPPSVQSHLQITQEENERLERAERMRASVGGAITAGIDCDSASTSAAAAAAQHQPQPQPQPQPSSLTQNDSQHQTQPQLQPQLPPQLQGQLQPQLQPQLQTQLQPQIQPQPQLLPVSAPVPASVTAPGSLSAVSTSSEYMGGSAAIGPITPATTSSITAAVTASSTTSAVPMGNGVGVGVGVGGNVSMYANAQTAMALMGVALHSHQEQLIGGVAVKSEHSTTA
For the molecule B1, the binding entry in assay [4] and in [5] was “no binding” throughout.

B2: Ecdysone Receptor (EcR), endogenous in larvae (protein, UniProt P34021 1-878)
chain: T1 sequence
As for B2, the binding entry in assay [2] is “binds”.

B3: Flag-tagged Ecdysone Receptor isoform B1 (EcR-B1), full length (protein, UniProt P34021-1 1-878)
chain: T1 sequence
With B3, the binding result in assay [4] and in [5] was “no binding” throughout.

B4: Flag-tagged Ultraspiracle (Usp), full length (protein, UniProt P20153 1-508)
chain: T2 sequence
Consider B4, for which the binding result in assay [4], in assay [6], in assay [7], in [8], in assay [9] and in [5] was “binds” throughout.
